According to publication PMC4336329 (PLoS ONE, 2015):
About 2,200 (0.71%) of roughly 310,000 compounds showed an effect of 50% or more. Effects have a minus sign here. This is one part of the list.

The compounds below were run against human ether-à-go-go-related gene (hERG) potassium channel (human, UniProt Q12809) (assay: primary screen, population patch clamp on CHO cells stably expressing hERG).
Chain of human ether-à-go-go-related gene (hERG) potassium channel (Q12809 whole entry, looked up): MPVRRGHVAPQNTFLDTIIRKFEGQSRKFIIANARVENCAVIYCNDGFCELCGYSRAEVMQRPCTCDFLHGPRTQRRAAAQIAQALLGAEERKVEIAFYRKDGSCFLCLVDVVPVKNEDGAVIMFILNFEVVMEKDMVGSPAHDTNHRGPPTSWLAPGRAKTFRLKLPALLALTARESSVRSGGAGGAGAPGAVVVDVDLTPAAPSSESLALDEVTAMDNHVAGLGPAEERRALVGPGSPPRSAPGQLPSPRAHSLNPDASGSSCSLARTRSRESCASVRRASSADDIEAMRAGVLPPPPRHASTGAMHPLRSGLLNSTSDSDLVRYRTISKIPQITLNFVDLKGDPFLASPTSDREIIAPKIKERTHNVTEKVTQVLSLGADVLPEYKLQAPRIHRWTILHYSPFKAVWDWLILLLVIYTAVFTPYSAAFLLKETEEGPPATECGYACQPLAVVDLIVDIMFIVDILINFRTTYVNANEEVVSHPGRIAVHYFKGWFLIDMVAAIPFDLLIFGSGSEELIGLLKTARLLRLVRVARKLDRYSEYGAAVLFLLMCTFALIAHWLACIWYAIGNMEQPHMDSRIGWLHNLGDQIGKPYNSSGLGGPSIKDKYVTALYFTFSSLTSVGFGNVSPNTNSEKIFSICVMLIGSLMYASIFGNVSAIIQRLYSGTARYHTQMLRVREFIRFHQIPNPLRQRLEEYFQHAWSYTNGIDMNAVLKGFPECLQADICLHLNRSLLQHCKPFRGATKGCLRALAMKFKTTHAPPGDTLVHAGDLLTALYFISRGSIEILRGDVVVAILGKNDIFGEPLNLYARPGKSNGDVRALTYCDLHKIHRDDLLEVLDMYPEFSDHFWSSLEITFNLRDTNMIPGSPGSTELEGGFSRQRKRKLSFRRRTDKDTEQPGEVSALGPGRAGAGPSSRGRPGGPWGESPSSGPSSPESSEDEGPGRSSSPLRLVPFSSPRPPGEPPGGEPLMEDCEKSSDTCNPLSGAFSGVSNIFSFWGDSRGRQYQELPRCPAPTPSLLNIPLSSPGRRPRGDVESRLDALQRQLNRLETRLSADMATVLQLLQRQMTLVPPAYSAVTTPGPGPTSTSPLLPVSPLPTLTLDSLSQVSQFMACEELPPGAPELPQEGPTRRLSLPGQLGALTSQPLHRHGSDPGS

Structure (SMILES) | hERG current change (%, negative = inhibition) at 1uM
CC(C)Cc1nnc(NS(=O)(=O)Cc2ccccc2)s1 | 7.48%
O=c1c(C/C=C/c2ccccc2)c(O)nc2n1CCCS2 | -0.739%
O=C(COC(=O)c1cccs1)c1ccc2c(c1)OCCO2 | 1.98%
CCN(CC)C(=O)c1cc2c(=O)n3ccccc3nc2s1 | -1.32%
Cc1ccc(-c2csc(NCCc3nc4cc(Cl)c(Cl)cc4n3CCCO)n2)cc1 | 9.1%
Nc1ccc(NC(=O)c2cccs2)c(Cl)c1 | 12.3%
Cc1cc(NC(=O)CN2CCCCC2)n(-c2ccccc2)n1 | 12.1%
CCOC(=O)c1cc(NC(=O)CSc2nnc(CN3CCOCC3)n2C)ccc1Cl | 0.655%
CCO[C@H]1OC(C(=O)O)=C[C@@H](c2coc3ccccc3c2=O)[C@@H]1CCCO | 10.3%
O=C(O)/C=C\C(=O)Nc1ccccc1C#Cc1ccc(Br)cc1 | 14.7%
CC(=O)Nc1cccc(C(=O)N/N=C/c2cccnc2)c1 | 6.56%
CCN(CC)c1cc(NCCO)c([N+](=O)[O-])c2nonc12 | 0.923%
O=C(NC(Cc1ccccc1)C(=O)N1CCc2ccccc2C1)c1ccccc1 (stereo not shown) | 15.9%
C=CCN1C(=O)C(Cc2ccc(OC)cc2)SC1=Nc1ccc(C(=O)O)cc1 (stereo not shown) | 10.1%
Cc1ccc(Nc2ccc(N)cc2S(=O)(=O)O)cc1 | 16.2%
COc1ccc(N(C(=O)Cn2nnc(-c3ccc(F)cc3)n2)C(C)C(=O)NC2CCCC2)cc1 (stereo not shown) | 10.9%
Cc1ccc(CNC(=O)C2CCN(S(=O)(=O)c3cnc[nH]3)CC2)cc1 | 2.38%
C#CCn1c(=NC(=O)c2cc(Cl)sc2Cl)sc2cc(S(N)(=O)=O)ccc21 | 8.95%
O=S(=O)(Nc1nc2ccccc2nc1N1CCc2ccccc2C1)c1ccc(Br)cc1 | 4.98%
Cc1ccc(S(=O)(=O)N(C)c2ccc(OCc3cccc(C)c3)cc2)cc1 | 16.4%
CCOC(=O)c1c(C)[nH]c(C(=O)CN2C(=O)NC(CC)(c3ccccc3)C2=O)c1C (stereo not shown) | 12.7%
CCCn1c2c(c(O)c(C(=O)Nc3ccc(OC)cc3)c1=O)CCCC2 | 3.2%

Structure (SMILES) | hERG current change (%, negative = inhibition) at 1uM
Nc1c(NCc2ccccc2)c(=O)c1=O | 10%
CC(C)OC(=O)CSc1nnc(CNc2ccc(Cl)cc2)n1C | 9.83%
CCCSc1nc2c(cnn2-c2ccc(C)c(C)c2)c(=O)[nH]1 | 14.8%
O=C(COC(=O)Cc1ccc(Cl)cc1)Nc1ccc2[nH]c(=O)[nH]c2c1 | 9.12%
COc1cc(CN2CCN(C(=O)CC(C)C)CC2)cc(OC)c1O.O=C(O)C(=O)O | 4.82%
O=C(CSc1nncs1)Nc1nnc(-c2ccccc2)o1 | 8.11%
Cc1ccc(CN(C)C(=O)CSc2nnc3n2CCCCC3)c(C)c1 | 10.1%
CCOc1ccc(N/C=C\C(=O)c2ccc3c(c2)OCO3)cc1 | 15.8%
Cc1ccc(-c2ccc(C(=O)NCCCNC(=O)c3cnccn3)o2)cc1Cl | 18.8%
O=C(Cc1c[nH]c2ccccc12)Nc1nnc(C2CC2)s1 | 2.12%
Cc1ccc(C)c2[nH]c(=O)c(CN(Cc3nnnn3C3CCCCC3)CC3CCCO3)cc12 (stereo not shown) | 5.73%
COc1ccc(/C=C/C(=O)NC(=S)N2C[C@H]3C[C@H](C2)c2cccc(=O)n2C3)cc1OC | 6.36%
CCCN(CCC)CCCNC(=O)C1c2cc(OC)c(OC)cc2C(=O)N(C)C1c1cccs1 (stereo not shown) | 14.8%
O=C(NC(NNc1ccc([N+](=O)[O-])cc1)(C(F)(F)F)C(F)(F)F)c1ccc(Cl)cc1 | 5.38%
Nc1c(N(CCC2=CCCCC2)C(=O)Cc2ccc(F)cc2)c(=O)[nH]c(=O)n1Cc1ccccc1 | -3.84%
Cc1cc2[nH]cnc2c([N+](=O)[O-])c1C | -10.1%
CCC(=O)N1c2ccc(S(=O)(=O)N3CCOCC3)cc2CC1C (stereo not shown) | 13.5%
CN(Cc1ccccc1)C(=O)COC(=O)C1CCN(S(=O)(=O)c2ccc3c(c2)OCCO3)CC1 | 8.54%
CCOC(=O)C(NC(=O)C1C(C)N1S(=O)(=O)c1ccc(C)cc1)C(=O)OCC (stereo not shown) | -4.77%
O=C(O)c1ccc(N=NN2CCCCCC2)cc1 | 18.4%
COc1ccc(CNS(=O)(=O)CCNC(=O)c2cccc(OC)c2)cc1 | -39.1%
CC(=O)NC(Cc1ccc(F)cc1)C(=O)O (stereo not shown) | -8.68%

Structure (SMILES) | hERG current change (%, negative = inhibition) at 1uM
CC(C)CNC(=O)CN1C(=O)NC2(CCc3ccccc32)C1=O (stereo not shown) | 11.6%
O=C(COC(=O)c1ccc(O)cc1)c1ccc(S(=O)(=O)N2CCCCC2)cc1 | 10.5%
CCOC(=O)C1=C(COC(=O)CSc2ccc(C)cc2)NC(=O)NC1C (stereo not shown) | 1.96%
CCOC(=O)c1c(C)[nH]c(C(=O)NCc2ccccn2)c1C | 6.33%
C=CCNC(=O)C1CCN(c2ccc(S(=O)(=O)N3CCOCC3)cc2Cl)CC1 | 9.31%
Cc1ccc(S(=O)(=O)N(CC(=O)NCc2ccco2)c2ccccc2C)cc1 | 3.62%
COc1ccc(-n2cc(CN3CCCC3)c(-c3cccc(F)c3)n2)cc1 | -9.53%
CC(C)c1ccc(C2CC(=O)N3CN(Cc4ccco4)CSC3=C2C#N)cc1 (stereo not shown) | 12.2%
O=C(O)c1ccc(CN2CCOCC2)o1 | 10.8%
Cc1ccc(-n2nc(C)c3c(C)c(CCC(=O)Nc4ccc(CN5CCCC5)cc4)c(C)nc32)cc1 | 5.31%
Cc1ccc2cc(CNCCc3ccccc3C)c(=O)[nH]c2c1 | -42.9%
CN(/C=C/c1c([N+](=O)[O-])c(=O)n(C)c(=O)n1C)c1ccccc1 | 0.465%
CN1CCc2c(sc(NC(=O)c3ccc4ccccc4c3)c2C(N)=O)C1.Cl | 13.8%
O=C(Nc1ccccc1N1CCOCC1)C1CCCCN1S(=O)(=O)c1ccccc1 (stereo not shown) | 2.67%
CCCNC(=O)Nc1cc(S(=O)(=O)CC)ccc1O | 7.34%
c1ccc(-c2noc(CN3CCOCC3)n2)cc1 | 21.6%
CN(CC(=O)Nc1ccc(F)cc1)C(=O)CSc1ncccn1 | 14.2%
COC(=O)COc1ccc(/C=N/NC(=O)c2ccc(N(Cc3ccccc3)S(C)(=O)=O)cc2)cc1 | 2.93%
CCOc1ccc(N2C(=O)CC(C(C)c3ccccc3)C2=O)cc1 (stereo not shown) | -4.13%
Nc1ccc(Oc2ccccc2F)nc1 | 14.9%
CC(C)(CO)NCc1cc(Br)ccc1OCc1ccccc1.Cl | 0.0619%
O=C(CN1C(=O)NC2(CCCc3ccccc32)C1=O)N1CCN(c2cccc(C(F)(F)F)c2)CC1 (stereo not shown) | 2.72%

Structure (SMILES) | hERG current change (%, negative = inhibition) at 1uM
Cc1nnc(SCC(=O)Nc2cccc(C(F)(F)F)c2)n1Cc1ccco1 | -2.42%
COc1ccc(S(=O)(=O)N2CN3CCN(C3)C2)cc1OC | 6.62%
CS(=O)(=O)c1nc(S(=O)(=O)c2ccc(Cl)cc2)c(NCCCn2ccnc2)s1 | 15%
CCC1=C([N+](=O)[O-])C(c2ccc3c(c2)OCO3)NC(=O)N1 (stereo not shown) | 14.7%
CC(=N\Nc1ccc(Cl)cc1)/C(=N/O)C(=O)Nc1ccccc1 | 9.45%
Cc1ccccc1COc1ccc2oc(C)c(C(=O)O)c2c1 | 14.7%
CSc1ccccc1NC(=O)Cn1c(-c2cscn2)nc2ccccc21 | 6.15%
O=C(Nc1cccc(S(=O)(=O)N2CCCCCC2)c1)c1ccc2ccccc2n1 | 5.96%
COc1ccc(C)cc1NC(=O)CN(c1ccccc1F)S(C)(=O)=O | 8.8%
O=S(=O)(c1ccc(F)c2ccccc12)N1CCCCC1 | 7.14%
CCN1CCN(S(=O)(=O)c2ccc(Oc3ccccc3OC)cc2)CC1 | -2.12%
CCSCCOC(=O)C1=C(C)NC(=O)NC1c1ccc2c(c1)OCO2 (stereo not shown) | -2.24%
Cc1cc(C)n(CC(=O)N2CCCC(C(=O)c3cccc(OC(C)C)c3)C2)n1 (stereo not shown) | -3.09%
Cc1cccc(N(Cc2ccccc2F)S(C)(=O)=O)c1 | 7.42%
COc1ccc(-n2c(=O)[nH]cc(C(=O)Nc3ccccc3)c2=O)cc1 | 8.48%
Cc1nn(-c2ccccc2)c(C)c1/C=N/O | 11.4%
COc1cccc(NC(=O)CN(C)CC(=O)Nc2ccc(C)cc2Cl)c1 | 12.8%
Cc1ccc(CSCCNC(=O)CN(c2cccc([N+](=O)[O-])c2)S(C)(=O)=O)cc1 | -10.3%
COC(=O)c1ccc(C2/C(=C(/O)c3ccc(OC)cc3)C(=O)C(=O)N2c2cc(C)on2)cc1 (stereo not shown) | 6.75%
CC(=O)Nc1ccc(NS(=O)(=O)c2ccc(C)cc2)c([N+](=O)[O-])c1 | -20.5%
Cc1ccc(S(=O)(=O)N(C)c2ccc(OCC(=O)N3CCCCC3)cc2)cc1 | 7.49%
CCNCCC(CCC(C)C)c1ccc2c(c1)OCO2 (stereo not shown) | -64.3%
